# From the supplement of paper PMC8728848
# The list shows a part of the results.
# What was measured:
# Experiment in all cases: glycan array binding signal (z-score within array); higher = stronger binding
# Conditions in all cases: glycan notation: IUPAC condensed, linker removed
# Gal(b1-4)Glc = target: Gal(b1-4)Glc
# Method in brief: (§1)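 Negative Z-scores can be read as non-binding. The Z-score is calculated within each array and then averaged across arrays of one protein sequence at different concentrations or buffers and across linkers. Arrays, 3228 in all, were curated from the Consortium for Functional Glycomics database and kept only where the protein sequence was available.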
# Gal(b1-4)Glc6S = target: Gal(b1-4)Glc6S
# Method in brief: as §1
# Gal(b1-4)GlcNAc = target: Gal(b1-4)GlcNAc
# Method in brief: as §1
# [1] = target: Gal(b1-4)GlcNAc(a1-6)Gal(b1-4)GlcNAc
# Method in brief: as §1
# Gal(b1-4)GlcNAc(b1-2)Man = target: Gal(b1-4)GlcNAc(b1-2)Man
# Method in brief: as §1
# [2] = target: Gal(b1-4)GlcNAc(b1-2)Man(a1-3)Man(b1-4)GlcNAc(b1-4)GlcNAc
# Method in brief: as §1
# [3] = target: Gal(b1-4)GlcNAc(b1-2)Man(a1-3)[Gal(b1-4)GlcNAc(b1-2)Man(a1-6)]Man(b1-4)GlcNAc(b1-4)GlcNAc
# Method in brief: as §1
# [4] = target: Gal(b1-4)GlcNAc(b1-2)Man(a1-3)[Gal(b1-4)GlcNAc(b1-2)Man(a1-6)]Man(b1-4)GlcNAc(b1-4)[Fuc(a1-6)]GlcNAc
# Method in brief: as §1
# [5] = target: Gal(b1-4)GlcNAc(b1-2)Man(a1-3)[Gal(b1-4)GlcNAc(b1-2)Man(a1-6)][Gal(b1-4)GlcNAc(b1-4)]Man(b1-4)GlcNAc(b1-4)[Fuc(a1-6)]GlcNAc
# Method in brief: as §1
# [6] = target: Gal(b1-4)GlcNAc(b1-2)Man(a1-3)[Gal(b1-4)GlcNAc(b1-2)Man(a1-6)][GlcNAc(b1-4)]Man(b1-4)GlcNAc(b1-4)[Fuc(a1-6)]GlcNAc
# Method in brief: as §1
# [7] = target: Gal(b1-4)GlcNAc(b1-2)Man(a1-3)[Gal(b1-4)GlcNAc(b1-2)][GlcNAc(b1-4)]Man(b1-4)GlcNAc(b1-4)GlcNAc
# Method in brief: as §1
# [8] = target: Gal(b1-4)GlcNAc(b1-2)Man(a1-3)[GlcNAc(b1-2)Man(a1-6)]Man(b1-4)GlcNAc(b1-4)GlcNAc
# Method in brief: as §1
# [9] = target: Gal(b1-4)GlcNAc(b1-2)Man(a1-3)[GlcNAc(b1-4)][Gal(b1-4)GlcNAc(b1-2)Man(a1-6)]Man(b1-4)GlcNAc(b1-4)GlcNAc
# Method in brief: as §1
# [10] = target: Gal(b1-4)GlcNAc(b1-2)Man(a1-3)[Man(a1-6)]Man(b1-4)GlcNAc(b1-4)GlcNAc
# Method in brief: as §1
# [11] = target: Gal(b1-4)GlcNAc(b1-2)Man(a1-6)Man(b1-4)GlcNAc(b1-4)GlcNAc
# Method in brief: as §1
# [12] = target: Gal(b1-4)GlcNAc(b1-2)Man(a1-6)[GlcNAc(b1-2)Man(a1-3)]Man(b1-4)GlcNAc(b1-4)GlcNAc
# Method in brief: as §1
# [13] = target: Gal(b1-4)GlcNAc(b1-2)Man(a1-6)[Man(a1-3)]Man(b1-4)GlcNAc(b1-4)GlcNAc
# Method in brief: as §1
# [14] = target: Gal(b1-4)GlcNAc(b1-2)[Gal(b1-4)GlcNAc(b1-4)]Man(a1-3)[Gal(b1-4)GlcNAc(b1-2)Man(a1-6)]Man(b1-4)GlcNAc(b1-4)GlcNAc
# Method in brief: as §1
# [15] = target: Gal(b1-4)GlcNAc(b1-2)[Gal(b1-4)GlcNAc(b1-4)]Man(a1-3)[Gal(b1-4)GlcNAc(b1-2)[Gal(b1-4)GlcNAc(b1-6)]Man(a1-6)]Man(b1-4)GlcNAc(b1-4)GlcNAc
# Method in brief: as §1
# [16] = target: Gal(b1-4)GlcNAc(b1-2)[Gal(b1-4)GlcNAc(b1-4)]Man(a1-3)[GlcNAc(b1-4)][Gal(b1-4)GlcNAc(b1-2)Man(a1-6)]Man(b1-4)GlcNAc(b1-4)GlcNAc
# Method in brief: as §1
# [17] = target: Gal(b1-4)GlcNAc(b1-2)[Gal(b1-4)GlcNAc(b1-4)]Man(a1-3)[GlcNAc(b1-4)][Gal(b1-4)GlcNAc(b1-2)[Gal(b1-4)GlcNAc(b1-6)]Man(a1-6)]Man(b1-4)GlcNAc(b1-4)GlcNAc
# Method in brief: as §1
# [18] = target: Gal(b1-4)GlcNAc(b1-2)[Gal(b1-4)GlcNAc(b1-6)]Man(a1-6)[Gal(b1-4)GlcNAc(b1-2)Man(a1-3)]Man(b1-4)GlcNAc(b1-4)GlcNAc
# Method in brief: as §1
binder,measurement,setting,value
"Nictaba (Nicotiana tabacum), Q94EW1 (protein) MQGQWIAARDLSITWVDNPQYWTWKTVDPNIEVAELRRVAWLDIYGKIETKNLIRKTSYAVYLVFKLTDNPRELERATASLRFVNEVAEGAGIEGTTVFISKKKKLPGELGRFPHLRSDGWLEIKLGEFFNNLGEDGEVEMRLMEINDKTWKSGIIVKGFDIRPN",glycan array binding signal (z-score),Gal(b1-4)Glc,-0.297
same,glycan array binding signal (z-score),Gal(b1-4)Glc6S,-0.278
same,glycan array binding signal (z-score),Gal(b1-4)GlcNAc,-0.259
same,glycan array binding signal (z-score),[1],-0.282
same,glycan array binding signal (z-score),Gal(b1-4)GlcNAc(b1-2)Man,-0.283
same,glycan array binding signal (z-score),[2],2.85
same,glycan array binding signal (z-score),[3],3.74
same,glycan array binding signal (z-score),[4],1.64
same,glycan array binding signal (z-score),[5],0.29
same,glycan array binding signal (z-score),[6],0.532
same,glycan array binding signal (z-score),[7],-0.036
same,glycan array binding signal (z-score),[8],2.42
same,glycan array binding signal (z-score),[9],-0.103
same,glycan array binding signal (z-score),[10],3.52
same,glycan array binding signal (z-score),[11],0.684
same,glycan array binding signal (z-score),[12],1.89
same,glycan array binding signal (z-score),[13],0.889
same,glycan array binding signal (z-score),[14],0.071
same,glycan array binding signal (z-score),[15],0.157
same,glycan array binding signal (z-score),[16],0.068
same,glycan array binding signal (z-score),[17],-0.308
same,glycan array binding signal (z-score),[18],2.32
